From the RNAGym collection of RNA variant scans (doi:10.7554/elife.90254)
Read counts are not given, so values of variants with three or more changes are uncertain.

B1: LINE1-mini (parent)
chain: GGCAGAGCUCAACACAGCGUGGCAAAGUGGCUGUGGCUAGACUGCC

Variants of: B1
Assay: self-cleavage, relative activity (ratio to wild type); higher = more cleavage; in vitro, sequencing; the parent is a self-cleaving ribozyme

Variant	self-cleavage
GGUAGAGCUCCACACAGCGUGGGAAAGUGGCUGUGGCUAGACUGCC [C3U A11C C23G]	0.02
GGGAGAGCUCAACACAGCGGGGCAAAGUGGCUGUGGCUACACUGCC [C3G U20G G40C]	0.05
GGUCGAGCUCAACACAUCGUGGCAAAGUGGCUGUGGCUCGACUGCC [C3U A4C G17U A39C]	0.05
GGUGGAGCUCAACACAGCGUGGCAAAGUGGUUAUGGCUAGCCUGCC [C3U A4G C31U G33A A41C]	0.19
GGUGGACCUCAACACAGCGUGGCAAAGUGGGUGUGGCUAGACUGCG [C3U A4G G7C C31G C46G]	0.04
GGUAGGGCUCAACACAGCGUGGCAAAGUGGCUGUGUCUAGACUGCC [C3U A6G G36U]	0.35
GGUCGAUCUCAACACAGCCUGGCAAAGUGGCUGUGGCGAGAUUGCC [C3U A4C G7U G19C U38G C42U]	0.02
GGGAGAGCUCAACACAGCUUGCCUAAGUGGCUGUGGCUAGACUGCC [C3G G19U G22C A24U]	0.1
GGUAGGGCUCAACACAGCGUCGCAAAGUGGCUGUGGCUAGACUGCC [C3U A6G G21C]	0.05
GGGAGAGCUCAACACAGCGUGGCAAAGUGUCUGUGGAUAGACUGCC [C3G G30U C37A]	0.93
GGUCGAGCUCACCCCAGCGUGGCAAAGUGGCUGUGGCUAAACUGCC [C3U A4C A12C A14C G40A]	0.02
GGGAGAGCUCAACACAGCGUGGCAAAGUGGCAGAGGCUAGACUGCC [C3G U32A U34A]	0.04
GGGAGAGCCCAACACAGCGUGUCAAAGUGCCUGUGGCUAGACUACC [C3G U9C G22U G30C G44A]	0.1
GGGAGAGCUCAACACAGCGGGGCAAAGUGGCUGUGGGUAGACUGCC [C3G U20G C37G]	0.01
GGGAGAGCUCAACACAGCGUGUCAAAGUGGCUGUCGCUGGACUGCC [C3G G22U G35C A39G]	0.04
GGGAGAGCUCAACACAGCGUGGCAAAGUGCCUGUGGAUAGACUGCC [C3G G30C C37A]	0.13
GGGAGAGCUCAACACAGCGUGUCAAAGUGGCUGUGGCUAUACUGCC [C3G G22U G40U]	0.32
GGGAGAGCUCAACACAGCGUUGCAACGGGGCUGUGGCUAGACUGCC [C3G G21U A26C U28G]	0.15
GGGAGAGCUCAACACAUCGCGGCAAAGUAGCUGUGGUUAGACUGCC [C3G G17U U20C G29A C37U]	0.48

Variant	self-cleavage
GGGAGAGCACAACACAGCUUGGCAAAGUGGCUGUGGCUAGACUGCC [C3G U9A G19U]	0.17
GGUAGAGCUCAGCACAGCGUGUCAAAGUGGCUGUGGCUAGACUGCC [C3U A12G G22U]	0.09
GGGAGAGCUCAACACAGCGUUGCGAAGUGGCUGUGGUUAAACUGCC [C3G G21U A24G C37U G40A]	0.24
GGGAGAGCUCAACACAGCGCGGCAAAGUGGCUGUGCCUAGACUGCC [C3G U20C G36C]	0.15
GGGAGAGCUCAACACAGCCUGGCAAAGUGACUGUGGCUAGACUGCC [C3G G19C G30A]	0.07
GGUUGAGCUCAACACAGCGUCGCAAAGUGGCUGUGGCUAGACUGCC [C3U A4U G21C]	0.07
GGUAGAGCUCAACCCAGCGUGGCAAAGUGUCGGUGGCAAGACUGCC [C3U A14C G30U U32G U38A]	0.02
GGUAGUGCUCAACACAGCGUGGCCAAGUGGCUGUGGCUAGACUGCC [C3U A6U A24C]	0.28
GGUAGUGCGCAUCAAAGCGUGGCAAAGUGGCUGUGGCUAGACUUCC [C3U A6U U9G A12U C15A G44U]	0.15
GGGAGAGCUCAACACAGCGUGGCAAAGUAGUUGGGGGUAGACUGCC [C3G G29A C31U U34G C37G]	0.08
GGGAGAGCGCAACACAGCGUGGCAAAGUGGUUGUGGCUUGACUGAC [C3G U9G C31U A39U C45A]	0.02
GGUGGAGCUCAUCACGGCGUGUCAAAGUGGCUGUGGCUAGACUCCC [C3U A4G A12U A16G G22U G44C]	0.09
GGGAGAGCUCAACACAGCAUGGCUAAGUGGCUGUGGCUAGACUGCC [C3G G19A A24U]	0.42
GGGAGAGCUCAACACAGCGCGCAAAAGUCGCUGUGCCUAGAAUGCC [C3G U20C G22C C23A G29C G36C C42A]	0.02
GGUAGUGCUCAACACAGCGUGGCAAUCUGGCUGUCGGUAGACUGCC [C3U A6U A26U G27C G35C C37G]	0.09
GGUAGAGCUCCAUACAGCGUGGCAAAGUGGCUGUGGCUAAACUGCC [C3U A11C C13U G40A]	0.03
GGUCGAGCUCAACACAUCGUUGCAAAGUGGCUGUGGCUGGACUGCC [C3U A4C G17U G21U A39G]	0.02
GGGAGAGCUCAACACAGCGUGGCAAAGUAGCUGUGGGUGGACCGCG [C3G G29A C37G A39G U43C C46G]	0.1
GGUAGAGCUCACCACCGCGUGGCAAAGUGGCUGUGGCUAGACUGCC [C3U A12C A16C]	0.04

Variant	self-cleavage
GGGAGAGCACGACCCAGAGUGGCAAAGUGGAUGUGGGUAGAUUGCC [C3G U9A A11G A14C C18A C31A C37G C42U]	0
GGGAGAGCUCAACACAGCGGCGCAAAGUGGCUGUGGCUAGACUGCC [C3G U20G G21C]	0.03
GGUAGUGCUCAACACAGCGUGGCAAAGUGGCUGUGGCUAUACUGCC [C3U A6U G40U]	0.09
GGGAGAGCACAACACAGAGUGGCAAAGUGGCUGUGGCUAGACUGCC [C3G U9A C18A]	0.13
GGUAGAGCUCAACGCAGCGUGUCAAAGUGGCUGUGGCUAGACUGCC [C3U A14G G22U]	0.34
GGGAGAGCUCAACACAGCGUGGCAAAGUGGCUGUGGCCAGACUGCA [C3G U38C C46A]	0.16
GGUAGAGCUCCACACAGCGUGGCAAAGUGGCUCUGGCUAGACUGCC [C3U A11C G33C]	0.02
GGUCGAGCACAACACAGCGUGGCAAAGUGGAUGUGGCUAGAGUGAC [C3U A4C U9A C31A C42G C45A]	0.07
GGGAGAGCACAACACAGCGCGGCAAAGUGGCUCUGGCUAGACUGCC [C3G U9A U20C G33C]	0.41
GGUGGACCUCAACACAGCGUGGCAAAGUGGCUGUUGCUAGACUACC [C3U A4G G7C G35U G44A]	0.05
GGUAGGGCUCAAGACAGCGUGGCAAAGUGGAUGUGGCUAGACUGCA [C3U A6G C13G C31A C46A]	0.05
GGUGGAGCUCAACACAGCGUGGCAAAGUGGCUGUGGCUAGGCUGCC [C3U A4G A41G]	0.01
GGGAGAGCUCAACACAGCGUCGCAAAGUGGGUGUGGCUAGACUGCC [C3G G21C C31G]	0.06
GGGAGAGCUCAACACAGCGAGGCAAAGUGGCUAUGGCUAGACUGCC [C3G U20A G33A]	0.05
GGUAGAGCUCACCACAGCGUGGCAAAGUGGCUGUGGCUAGAUUGCC [C3U A12C C42U]	0.05
GGGAGAGCUCAACACAGCCUGGCAAUGUUGCUGUGGCUAGACUGGG [C3G G19C A26U G29U C45G C46G]	0.01
GGGAGAGCUCAACACAGCGCGGCAAAGUUGCUGUUGCAACACUGCC [C3G U20C G29U G35U U38A G40C]	0.08
GGUGGAGCUCACCACAGCGUGGCAAAGUGGCUGUGGCUAGACUGCC [C3U A4G A12C]	0.15
